Test results from the supplement of paper PMC4967469.
A lower IC50 marks a more sensitive line; fits outside the tested doses are given as limits. AUC is the area under the same curve over the 256-fold range up to the top dose, as a fraction: 1 means no effect, lower means more sensitive. For some of these results: Any top dose called inferred comes from the curve model; the source does not state it. For some of these results: Drugs with an entry number were screened twice under separate entries, and the two screens often disagree.

Tests used:
Assay in all cases: Viability of human cancer cell lines after 72 h of drug (GDSC screen)
Crizotinib = compound: C[C@@H](Oc1cc(-c2cnn(C3CCNCC3)c2)cnc1N)c1c(Cl)ccc(F)c1Cl [Crizotinib]; conditions: top dose 2 µM
Description: (§1)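 Human cancer cell lines in 384-well plates, medium with 10% serum, drug for 72 h over a 256-fold dose range (nine 2-fold or five 4-fold steps up to the top dose). Adherent lines were fixed and stained with the nucleic acid dye Syto60, suspension lines read with resazurin; signal relative to control wells, capped at 0 and 100%. One two-parameter sigmoid per drug and line, fitted in a mixed model over all curves with the slope shared within a line.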

AICAR = compound: NC(=O)c1ncn([C@@H]2O[C@H](CO)[C@@H](O)[C@H]2O)c1N [AICAR]; conditions: top dose 2000 µM; top dose inferred
Description: as §1

AKT inhibitor VIII = compound: O=c1[nH]c2ccccc2n1C1CCN(Cc2ccc(-c3[nH]c4cc5ncnc5cc4nc3-c3ccccc3)cc2)CC1 [AKT inhibitor VIII]; conditions: top dose inferred
Description: as §1

[1] = top dose 2.56 µM, screen: GDSC drug entry 171
[2] = top dose 10.24 µM, screen: GDSC drug entry 228

Row | Cell Line | AUC (Crizotinib) | IC50 (Crizotinib) [µM] | AUC (AICAR) | IC50 (AICAR) [µM] | AUC (AKT inhibitor VIII; [1]) | IC50 (AKT inhibitor VIII; [1]) [µM] | AUC (AKT inhibitor VIII; [2]) | IC50 (AKT inhibitor VIII; [2]) [µM]
1 | EM-2 (chronic myeloid leukaemia, suspension) | 0.721 | 0.58 | 0.551 | 175 | 0.972 | > 2.56 | 0.756 | 3.93
2 | SR (lymphoid neoplasm, suspension) | 0.513 | 0.135 | 0.647 | 304 | 0.921 | > 2.56 | 0.768 | 3.47
3 | NAMALWA (Burkitt lymphoma, suspension) | 0.956 | > 2 | 0.916 | > 2000 | 0.991 | > 2.56 | 0.744 | 2.77
4 | CMK (acute myeloid leukaemia, suspension) | 0.9 | 1.87 | 0.879 | 1510 | 0.975 | > 2.56 | 0.766 | 3.22
5 | BB30-HNC (head and neck, adherent) | 0.97 | > 2 | 0.756 | 669 | 0.858 | 2.04 | 0.876 | 9.85
6 | CAS-1 (glioma, adherent) | 0.97 | > 2 | 0.964 | > 2000 | 0.96 | > 2.56 | 0.94 | > 10.2
7 | Farage (B-cell lymphoma, suspension) | 0.992 | > 2 | 0.761 | 595 | 0.974 | > 2.56 | 0.65 | 1.53
8 | LB1047-RCC (kidney, adherent) | 0.97 | > 2 | 0.929 | > 2000 | 0.917 | > 2.56 | 0.921 | > 10.2
9 | CTV-1 (acute myeloid leukaemia, suspension) | 0.735 | 0.496 | 0.732 | 486 | 0.962 | > 2.56 | 0.592 | 1.08
10 | SW954 (urogenital system, adherent) | 0.98 | > 2 | 0.56 | 182 | 0.907 | > 2.56 | 0.72 | 2.72
11 | ES8 (Ewing sarcoma, adherent) | 0.891 | > 2 | 0.919 | > 2000 | 0.985 | > 2.56 | 0.76 | 3.36
12 | NCI-H211 (small cell lung carcinoma, adherent) | 0.973 | > 2 | 0.817 | 1080 | 0.924 | > 2.56 | 0.825 | 5.91
13 | KY821 (leukaemia, suspension) | 0.982 | > 2 | 0.774 | 685 | 0.992 | > 2.56 | 0.952 | > 10.2
14 | ALL-PO (lymphoblastic leukaemia, suspension) | 0.872 | > 2 | 0.617 | 267 | 0.949 | > 2.56 | 0.457 | 0.486
15 | MEG-01 (chronic myeloid leukaemia, suspension) | 0.785 | 0.801 | 0.768 | 707 | 0.978 | > 2.56 | 0.784 | 4.09
16 | RL (B-cell lymphoma, suspension) | 0.99 | > 2 | 0.84 | 1220 | 0.99 | > 2.56 | 0.559 | 0.912
17 | SK-N-DZ (neuroblastoma, adherent) | 0.97 | > 2 | 0.772 | 765 | 0.986 | > 2.56 | 0.988 | > 10.2
18 | JURL-MK1 (chronic myeloid leukaemia, suspension) | 0.93 | > 2 | 0.584 | 212 | 0.985 | > 2.56 | 0.798 | 4.84
19 | NB6 (neuroblastoma, adherent) | 0.98 | > 2 | 0.951 | > 2000 | 0.973 | > 2.56 | 0.951 | > 10.2
20 | GI-1 (glioma, adherent) | 0.888 | > 2 | 0.977 | > 2000 | 0.904 | > 2.56 | 0.927 | > 10.2

Row | Cell Line | AUC (Crizotinib) | IC50 (Crizotinib) [µM] | AUC (AICAR) | IC50 (AICAR) [µM] | AUC (AKT inhibitor VIII; [1]) | IC50 (AKT inhibitor VIII; [1]) [µM] | AUC (AKT inhibitor VIII; [2]) | IC50 (AKT inhibitor VIII; [2]) [µM]
21 | OCI-AML3 (acute myeloid leukaemia, suspension) | 0.99 | > 2 | 0.891 | 1750 | 0.973 | > 2.56 | 0.689 | 1.98
22 | KINGS-1 (glioma, adherent) | 0.638 | 0.348 | 0.907 | > 2000 | 0.935 | > 2.56 | 0.951 | > 10.2
23 | COR-L279 (small cell lung carcinoma, suspension) | 0.99 | > 2 | 0.924 | > 2000 | 0.952 | > 2.56 | 0.865 | 7.48
24 | HC-1 (hairy cell leukaemia, suspension) | 0.96 | > 2 | 0.825 | 1130 | 0.956 | > 2.56 | 0.653 | 1.67
25 | ALL-SIL (T-cell leukaemia, suspension) | 0.668 | 0.341 | 0.679 | 364 | 0.94 | > 2.56 | 0.426 | 0.414
26 | IST-SL2 (small cell lung carcinoma, suspension) | 0.956 | > 2 | 0.847 | 1450 | 0.93 | > 2.56 | 0.865 | 8.94
27 | EW-16 (Ewing sarcoma, adherent) | 0.915 | > 2 | 0.964 | > 2000 | 0.893 | > 2.56 | 0.835 | 7.14
28 | D-283MED (medulloblastoma, adherent) | 0.982 | > 2 | 0.922 | > 2000 | 0.991 | > 2.56 | 0.958 | > 10.2
29 | GR-ST (lymphoblastic leukaemia, suspension) | 0.93 | > 2 | 0.694 | 495 | 0.972 | > 2.56 | 0.774 | 4.87
30 | LB2241-RCC (kidney, adherent) | 0.982 | > 2 | 0.846 | 1720 | 0.974 | > 2.56 | 0.982 | > 10.2
31 | LB771-HNC (head and neck, adherent) | 0.982 | > 2 | 0.919 | > 2000 | 0.906 | > 2.56 | 0.893 | > 10.2
32 | SW684 (fibrosarcoma, adherent) | 0.982 | > 2 | 0.776 | 1200 | 0.971 | > 2.56 | 0.978 | > 10.2
33 | ML-2 (acute myeloid leukaemia, suspension) | 0.98 | > 2 | 0.944 | > 2000 | 0.973 | > 2.56 | 0.601 | 1.17
34 | A388 (skin, adherent) | 0.943 | > 2 | 0.902 | > 2000 | 0.895 | > 2.56 | 0.849 | 9.54
35 | NOMO-1 (acute myeloid leukaemia, suspension) | 0.959 | > 2 | 0.799 | 1120 | 0.982 | > 2.56 | 0.701 | 2.56
36 | LU-139 (small cell lung carcinoma, suspension) | 0.98 | > 2 | 0.753 | 838 | 0.982 | > 2.56 | 0.746 | 4.04
37 | MC116 (B-cell lymphoma, suspension) | 0.992 | > 2 | 0.987 | > 2000 | 0.987 | > 2.56 | 0.731 | 2.3
38 | KYM-1 (rhabdomyosarcoma, adherent) | 0.973 | > 2 | 0.854 | 1240 | 0.984 | > 2.56 | 0.991 | > 10.2
39 | SF539 (glioma, adherent) | 0.574 | 0.195 | 0.948 | > 2000 | 0.982 | > 2.56 | 0.954 | > 10.2
40 | A498 (kidney, adherent) | 0.898 | > 2 | 0.926 | > 2000 | 0.753 | 1.27 | 0.958 | > 10.2

Row | Cell Line | AUC (Crizotinib) | IC50 (Crizotinib) [µM] | AUC (AICAR) | IC50 (AICAR) [µM] | AUC (AKT inhibitor VIII; [1]) | IC50 (AKT inhibitor VIII; [1]) [µM] | AUC (AKT inhibitor VIII; [2]) | IC50 (AKT inhibitor VIII; [2]) [µM]
41 | GT3TKB (stomach, adherent) | 0.99 | > 2 | 0.934 | > 2000 | 0.974 | > 2.56 | 0.99 | > 10.2
42 | NCI-SNU-5 (stomach, suspension) | 0.357 | 0.05 | 0.914 | > 2000 | 0.989 | > 2.56 | 0.987 | > 10.2
43 | EW-1 (Ewing sarcoma, semi-adherent) | 0.938 | > 2 | 0.885 | 1890 | 0.953 | > 2.56 | 0.507 | 0.669
44 | LB647-SCLC (small cell lung carcinoma, semi-adherent) | 0.98 | > 2 | 0.897 | > 2000 | 0.979 | > 2.56 | 0.924 | > 10.2
45 | ST486 (Burkitt lymphoma, suspension) | 0.872 | 1.53 | 0.777 | 711 | 0.981 | > 2.56 | 0.717 | 2.41
46 | NCI-H345 (small cell lung carcinoma, suspension) | 0.99 | > 2 | 0.95 | > 2000 | 0.951 | > 2.56 | 0.99 | > 10.2
47 | SK-MEL-1 (melanoma, suspension) | 0.99 | > 2 | 0.98 | > 2000 | 0.993 | > 2.56 | 0.936 | > 10.2
48 | VA-ES-BJ (soft tissue, adherent) | 0.956 | > 2 | 0.8 | 1030 | 0.935 | > 2.56 | 0.946 | > 10.2
49 | SK-LMS-1 (soft tissue, adherent) | 0.821 | 1.09 | 0.839 | 1270 | 0.915 | > 2.56 | 0.837 | 6.38
50 | KS-1 (glioma, adherent) | 0.863 | > 2 | 0.816 | 1470 | 0.948 | > 2.56 | 0.917 | > 10.2
51 | KCL-22 (chronic myeloid leukaemia, suspension) | 0.879 | 1.49 | 0.628 | 264 | 0.98 | > 2.56 | 0.705 | 2.16
52 | ES4 (Ewing sarcoma, adherent) | 0.953 | > 2 | 0.852 | 1920 | 0.936 | > 2.56 | 0.693 | 2.44
53 | SH-4 (melanoma, adherent) | 0.95 | > 2 | 0.847 | > 2000 | 0.957 | > 2.56 | 0.889 | > 10.2
54 | LAMA-84 (chronic myeloid leukaemia, suspension) | 0.757 | 0.696 | 0.604 | 242 | 0.976 | > 2.56 | 0.748 | 3.34
55 | HSC-39 (stomach, suspension) | 0.99 | > 2 | 0.764 | 634 | 0.991 | > 2.56 | 0.8 | 4.18
56 | COR-L88 (small cell lung carcinoma, adherent) | 0.98 | > 2 | 0.908 | > 2000 | 0.981 | > 2.56 | 0.923 | > 10.2
57 | ATN-1 (T-cell lymphoblastic leukaemia, suspension) | 0.92 | > 2 | 0.751 | 622 | 0.983 | > 2.56 | 0.604 | 1.21
58 | HA7-RCC (kidney, adherent) | 0.98 | > 2 | 0.985 | > 2000 | 0.886 | > 2.56 | 0.905 | > 10.2
59 | DMS-114 (small cell lung carcinoma, adherent) | 0.982 | > 2 | 0.854 | 1960 | 0.985 | > 2.56 | 0.944 | > 10.2
